Here are results for 172 sequences from article PMC5836133.

The other results are listed elsewhere or left out. At the low end of the ranking the order means little.

For the test, the system named is T1, GST-NbGlk1(82-244).
T1 sequence: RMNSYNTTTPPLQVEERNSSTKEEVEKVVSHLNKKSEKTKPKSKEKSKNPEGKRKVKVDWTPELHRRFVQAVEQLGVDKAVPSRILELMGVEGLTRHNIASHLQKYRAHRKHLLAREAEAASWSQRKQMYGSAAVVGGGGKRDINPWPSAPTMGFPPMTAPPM
Briefly: protein-binding microarray.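 Note: rank-based score ranging −0.5 to +0.5 with E above 0.45 taken as significant binding.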 The note with it: NbGlk1 is a Golden2-like transcription factor of Nicotiana benthamiana; high values mean tight binding; most listed sequences are background and not binding sites; double strand, one strand shown.
In turn, AACCAAAC had a binding signal of -0.073 E-score.

With ACACCCCA, the binding signal is -0.11 E-score. As to CACGCTCG, the binding signal is -0.0742 E-score. As to ACCCGCAA, the binding signal amounted to 0.0874 E-score. As to AATCCGGC, the binding signal was found to be 0.388 E-score. Then AATACCAT, with 0.00186 E-score; and AGGAAGGA, with -0.0882 E-score; and AAGCGGTA, with -0.0248 E-score. On to AAATACTC, for which the binding signal worked out at 0.12 E-score. The sequence AACCCTCG returned a binding signal of -0.231 E-score. On to ACCGTCTA, for which the binding signal was -0.187 E-score. To ACCAAATA belongs 0.0565 E-score; to ACGCAAGC, 0.00941 E-score; to AAAACTTG, -0.0438 E-score. AAAAAATG returned a binding signal of -0.0139 E-score. ACGGGCAT: the binding signal was -0.114 E-score. In turn, ATTTACGG showed a binding signal of 0.00553 E-score.

AAAGCTGA: the binding signal was -0.0963 E-score. Then AGGATAAA, with 0.0638 E-score; and AAAGCGCA, with -0.136 E-score.

For CACTGCTC, the binding signal was -0.228 E-score. ATAGGTGC displayed a binding signal of 0.0346 E-score. AGGCGCAT registered a binding signal of -0.122 E-score. In the case of ATCTTACC, the binding signal was determined as 0.252 E-score. Consider AAAGGTAG, for which the binding signal is -0.00915 E-score. On to ATTATAGG, for which the binding signal came out at 0.121 E-score. Take CAGACCGG: the binding signal was -0.0845 E-score. To ACGGCTCC belongs 0.00315 E-score; to AAACCTTT, 0.0369 E-score; to ACTCCGCC, -0.221 E-score.

ATGAAAGC had a binding signal of -0.0457 E-score.

AATGTGCA showed a binding signal of 0.051 E-score. In turn, ATGCATAC had a binding signal of 0.063 E-score. Then ATGCTGAG, with -0.098 E-score; and ACTAAGAT, with 0.231 E-score; and AACGATGC, with -0.179 E-score.

AAGGTCGG returned a binding signal of -0.109 E-score.

AGGCCCCC returned a binding signal of -0.379 E-score. For CAATGTCA, the binding signal is 0.0859 E-score. AAAGGGGC came in with a binding signal of -0.241 E-score. Then ACATCTGG, with 0.033 E-score; and ACCATAGT, with -0.0902 E-score. In the case of AACTCATA, the binding signal is -0.0117 E-score. ATATGTCG: the binding signal was 0.0948 E-score. In turn, AAAATCCG registered a binding signal of 0.446 E-score. ATGATTTC: the binding signal is 0.387 E-score. With AAGATAAG, the binding signal is 0.0993 E-score.

With ACATATGG, the binding signal is -0.0525 E-score. Regarding ACGAGCAT, the binding signal is -0.0644 E-score. Turning to ACCTAGCG, the binding signal is -0.191 E-score. Turning to ACAGCCTA, the binding signal was -0.134 E-score. Turning to ATTGGCCG, the binding signal was -0.131 E-score. ATAAACTC came in with a binding signal of 0.0551 E-score. Take CAAGATCG: the binding signal is 0.284 E-score. Then AGGCATTG, with -0.0875 E-score; and ACCTTAGC, with -0.0505 E-score; and AAGCGTTG, with 0.019 E-score.

AAGAGAGT came in with a binding signal of -0.16 E-score. As to ACCCCAGG, the binding signal is -0.222 E-score. Turning to AACCTCAC, the binding signal was -0.148 E-score.

The sequence AGGGTTAT returned a binding signal of -0.148 E-score.

The sequence AGGGTCAC came in with a binding signal of -0.0446 E-score. ACATAACG had a binding signal of 0.0827 E-score. Sequence AACTAAAG registered a binding signal of -0.097 E-score. ATAGCGCC displayed a binding signal of -0.115 E-score. Turning to ATTATACA, the binding signal stood at 0.136 E-score.

With AACGTGGA, the binding signal was 0.00477 E-score.

The sequence ATTGACAG gave a binding signal of 0.0906 E-score. To CAGAGGAA belongs -0.209 E-score; to CAATCTCG, 0.404 E-score.

Sequence ATTTGAAG registered a binding signal of 0.178 E-score. Sequence ACCCTTAG came in with a binding signal of -0.143 E-score. AGAGACCG had a binding signal of -0.177 E-score.

In the case of AGTGTCAC, the binding signal was -0.207 E-score. ACCACGAT returned a binding signal of 0.048 E-score. In turn, AACACACT yielded a binding signal of -0.115 E-score.

For ATAGTTCA, the binding signal is 0.00351 E-score.

In turn, AGATGACC registered a binding signal of -0.109 E-score. With AAAGGTTG, the binding signal was determined as 0.0119 E-score. Sequence ATGGTGTG showed a binding signal of 0.0201 E-score.

Regarding ACTATCAG, the binding signal is -0.00334 E-score. Turning to AAGTCGAC, the binding signal is -0.174 E-score.

Consider AGCCTATC, for which the binding signal worked out at 0.0694 E-score. The sequence ACAAGCGT returned a binding signal of -0.24 E-score. For CAACAGGG, the binding signal was -0.112 E-score. As to ACTATGGA, the binding signal is -0.0113 E-score.

Sequence AGAGGGCG gave a binding signal of -0.214 E-score. Sequence AGACGTTA displayed a binding signal of -0.192 E-score. Then AAGTTAAC, with 0.0198 E-score; and CAATGGAC, with -0.13 E-score.

For the sequence ACAGCTCT, the binding signal was -0.0931 E-score.

As for ATAAAAGA, the binding signal is 0.173 E-score. Then ATAACCAA, with -0.00893 E-score; and ACAGATTA, with 0.362 E-score. AATACAAC showed a binding signal of 0.00615 E-score. To ATTTAAAC belongs 0.096 E-score; to ACAGATGC, -0.163 E-score.

Consider ATGTAACG, for which the binding signal is -0.0628 E-score.

The sequence CAAAACCA registered a binding signal of -0.11 E-score. As for AAAGAGAG, the binding signal was -0.128 E-score. As for CAGACATA, the binding signal is -0.0824 E-score. For AAGCACGG, the binding signal is -0.089 E-score. In turn, AGGTTACT had a binding signal of -0.0542 E-score. ACTCGAGT returned a binding signal of -0.208 E-score. The sequence AAACAGGA had a binding signal of 0.0635 E-score. AGAATCCT returned a binding signal of 0.439 E-score. On to CAAGACAG, for which the binding signal is -0.0527 E-score.

As to ATGTGTTC, the binding signal is -0.0817 E-score. Regarding ACCTAATC, the binding signal was 0.0526 E-score. Then ATACATTG, with 0.0937 E-score.

ACCAAAAA returned a binding signal of 0.117 E-score. The sequence AGAGCAGC showed a binding signal of -0.248 E-score.

As to ACTTTAGA, the binding signal stood at 0.072 E-score. On to ATAGAATG, for which the binding signal is -0.032 E-score. Then ATAAACAT, with 0.107 E-score; and AGTCAATA, with 0.0438 E-score. The sequence ATGAAGAG displayed a binding signal of -0.091 E-score. For the sequence ACCGTAAG, the binding signal is 0.0638 E-score.

The sequence ACATCCCT gave a binding signal of -0.019 E-score. Regarding CAATGGTC, the binding signal was -0.126 E-score. Turning to AATCAGGC, the binding signal was determined as 0.29 E-score.

For the sequence CAATAAAC, the binding signal was determined as 0.00712 E-score. The sequence AAACCCGC came in with a binding signal of -0.00698 E-score. Regarding AAACGACG, the binding signal was -0.0669 E-score. With ATACTTGA, the binding signal stood at 0.0379 E-score.

ATGTTGGC came in with a binding signal of -0.113 E-score. With ACGTGAGA, the binding signal was -0.0736 E-score.

The sequence ATTGGCAC returned a binding signal of -0.114 E-score.

AGAGCGCC yielded a binding signal of -0.239 E-score. For AGTTGACA, the binding signal came to 0.00696 E-score.

ATGGGGCC gave a binding signal of -0.216 E-score. With AGCTCTGG, the binding signal was -0.166 E-score.

In turn, AACATCGT came in with a binding signal of 0.00391 E-score.

On to AGATAATC, for which the binding signal was determined as 0.339 E-score. Sequence ATGTGCTA displayed a binding signal of -0.114 E-score. ACAACAAG came in with a binding signal of -0.0212 E-score. As to AGAGAACA, the binding signal is -0.0544 E-score. For ACTGACGA, the binding signal is -0.00265 E-score. ACCCTATC showed a binding signal of -0.113 E-score. Regarding ACGATCGT, the binding signal stood at 0.179 E-score. Then ATCCGGTG, with 0.295 E-score; and AAGGACTG, with -0.223 E-score.

In the case of AACCGGAT, the binding signal amounted to 0.233 E-score. The sequence AGGAATAG yielded a binding signal of -0.137 E-score. The sequence AAGTAAGT came in with a binding signal of 0.00921 E-score. Then ATCCCGAC, with 0.236 E-score; and AAGGGGTC, with -0.339 E-score; and AAAATTCA, with 0.0726 E-score. To AGGCCAGA belongs -0.0612 E-score. Then ACATCACA, with -0.0948 E-score. On to CACAGTTA, for which the binding signal was -0.0121 E-score. Consider CACGGCCG, for which the binding signal was -0.181 E-score. For ATATTGCG, the binding signal came to 0.328 E-score. On to AGATGACG, for which the binding signal was -0.0603 E-score. For AAGTCTTC, the binding signal was -0.0766 E-score. As to AATTTATG, the binding signal came to 0.136 E-score. ACCATCCA gave a binding signal of -0.05 E-score. Consider ATTGACAC, for which the binding signal was -0.0173 E-score. In turn, AGTAGAGA came in with a binding signal of -0.00507 E-score. On to ACCGCATC, for which the binding signal is -0.0245 E-score.

In turn, AGACGCGA registered a binding signal of 0.12 E-score. Then ACCTCCTC, with -0.283 E-score; and AAACTTGA, with -0.0302 E-score. Take AATCCATA: the binding signal stood at 0.379 E-score. To CACATCGC belongs -0.0862 E-score. ATGGGACA: the binding signal is -0.104 E-score. As to AATGGCCA, the binding signal was -0.223 E-score. To CACTGTTC belongs -0.0306 E-score.

In the case of ATCGAGAC, the binding signal is -0.00929 E-score.

Sequence ATATTTGG displayed a binding signal of 0.153 E-score.

The sequence ACCCCCGC came in with a binding signal of -0.224 E-score. Then ATAAACGC, with -0.0452 E-score.
